According to the supplement of paper PMC4604168 (melanoma cell lines):
The list shows a part of the results. Most values come without repeats; read them as rough.

The compounds below were run on WM451Lu (assay: cell count relative to DMSO control; melanoma cells; higher = more viable cells). Conditions: library dose: low library concentration; 72 h.
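Note: cell number obtained by counting DAPI-stained nuclei in high-throughput microscope images with image analysis software, screen run in 1,536-well plates.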

| SMILES | cell count [%] |
| --- | --- |
| Nc1ccn([C@@H]2O[C@H](CO)[C@@H](O)C2(F)F)c(=O)n1 [gemcitabine] + COc1cc2ncnc(Nc3ccc(Oc4ccccc4)cc3)c2cc1OC [SrcI1] (first compound 0.0004 µM, partner dose 2 µM) | 92.2 |
| CC(=O)O[C@@]12CO[C@@H]1C[C@H](O)[C@@]1(C)C(=O)[C@H](O)C3=C(C)[C@@H](OC(=O)[C@H](O)[C@@H](NC(=O)OC(C)(C)C)c4ccccc4)C[C@@](O)([C@@H](OC(=O)c4ccccc4)[C@H]21)C3(C)C [Docetaxel] + O=S(=O)(c1ccccc1)N(CC(F)(F)F)c1ccc(C(O)(C(F)(F)F)C(F)(F)F)cc1 [T0901317] (first compound 0.0001 µM, partner dose 1.4 µM) | 53 |
| CO[C@H]1C[C@@H]2CC[C@@H](C)[C@@](O)(O2)C(=O)C(=O)N2CCCC[C@H]2C(=O)O[C@H]([C@H](C)C[C@@H]2CC[C@@H](OCCO)[C@H](OC)C2)CC(=O)[C@H](C)/C=C(\C)[C@@H](O)[C@@H](OC)C(=O)[C@H](C)C[C@H](C)/C=C/C=C/C=C/1C [everolimus] + O=C(O)C(=O)Nc1sc2c(c1C(=O)O)CCNC2 [TCS401] (first compound 0.02 µM, partner dose 1.66667 µM) | 69.7 |
| CO[C@H]1C[C@@H]2CC[C@@H](C)[C@@](O)(O2)C(=O)C(=O)N2CCCC[C@H]2C(=O)O[C@H]([C@H](C)C[C@@H]2CC[C@@H](OCCO)[C@H](OC)C2)CC(=O)[C@H](C)/C=C(\C)[C@@H](O)[C@@H](OC)C(=O)[C@H](C)C[C@H](C)/C=C/C=C/C=C/1C [everolimus] + CN(C)S(=O)(=O)c1ccc2c(c1)/C(=C/c1cc3c([nH]1)CCCC3)C(=O)N2 [SU6656] (first compound 0.02 µM, partner dose 0.4 µM) | 88.8 |
| CC(=O)c1c(C)c2cnc(Nc3ccc(N4CCNCC4)cn3)nc2n(C2CCCC2)c1=O [palbociclib] + O=C1NC(=O)/C(=C/c2ccc(-c3ccc(F)cc3O)o2)S1 [AS252424] (first compound 0.04 µM, partner dose 1 µM) | 68.6 |
| CC(=O)c1c(C)c2cnc(Nc3ccc(N4CCNCC4)cn3)nc2n(C2CCCC2)c1=O [palbociclib] + O=C(Nc1cccc(Cl)c1)Nc1ncc(CCNc2ncnc3ccsc23)s1 [SNS314] (first compound 0.04 µM, partner dose 0.0008 µM) | 80.5 |
| Nc1ncn([C@H]2C[C@H](O)[C@@H](CO)O2)c(=O)n1 [decitabine] + C[C@]1(c2nc3c(C(N)=O)cccc3[nH]2)CCCN1 [Veliparib] (first compound 0.1 µM, partner dose 1.4 µM) | 99.5 |
| CC(=O)c1c(C)c2cnc(Nc3ccc(N4CCNCC4)cn3)nc2n(C2CCCC2)c1=O [palbociclib] + Clc1ccc(Nc2nnc(Cc3ccncc3)c3ccccc23)cc1 [vatalanib] (first compound 0.04 µM, partner dose 2 µM) | 89.5 |
| Nc1nc(F)nc2c1ncn2[C@@H]1O[C@H](CO)[C@@H](O)[C@@H]1O [fludarabine] + COc1cc2ncnc(Nc3ccc(Oc4ccccc4)cc3)c2cc1OC [SrcI1] (first compound 0.2 µM, partner dose 2 µM) | 45.3 |
